Measurements as given in the supplement of paper PMC12217912.
This is one part of the list. The full chains were built here from the parent and the listed change. Values near 0.05 are background.

B1: TEV protease; numbered along this chain (parent)
chain: MGESLFKGPRDYNPISSSICHLTNESDGHTTSLYGIGFGPFIITNKHLFRRNNGTLVVQSLHGVFKVKDTTTLQQHLVDGRDMIIIRMPKDFPPFPQKLKFREPQREERICLVTTNFQTKSMSSMVSDTSCTFPSGDGIFWKHWIQTKDGQCGSPLVSTRDGFIVGIHSASNFTNTNNYFTSVPKNFMELLTNQEAQQWVSGWRLNADSVLWGGHKVFMVKPEEPFQPVKEATQL

Variants of: B1
Assay: raw area under fraction-flipped curve 0-4 h after induction (AUC4h, not background-subtracted), DNA-recorder readout of cleavage of the substrate (dimensionless); higher = more cleavage of the substrate by the protease variant
Conditions: temperature: 34 °C; time window: 0-4 h after rhamnose induction
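Note: Bxb1 expression induced with 0.2% (w/v) L-rhamnose at OD600 near 0.5, cultures sampled hourly, flipped fraction per protease–substrate barcode pair counted by paired-end Illumina sequencing.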

For Y12E, the “area with substrate ENLYDQS” value was 0.06, the “area with substrate ENLYEQS” value was 0.0674 and the “area with substrate ENLYGQS” value was 0.0674. The “area with substrate ENLYHQS” value was 0.0669, the “area with substrate ENLYIQS” value was 0.127 and the “area with substrate ENLYKQS” value was 0.0511. For the same variant, the “area with substrate ENLYLQS” value was 0.0813, the “area with substrate ENLYMQS” value was 0.0712 and the “area with substrate ENLYNQS” value was 0.0673. For the same variant, the “area with substrate ENLYPQS” value was 0.0788, the “area with substrate ENLYQQS” value was 0.059 and the “area with substrate ENLYRQS” value was 0.0519. The “area with substrate ENLYVQS” value was 0.0868, the “area with substrate ENLYWQS” value was 0.0941 and the “area with substrate ENLYYQS” value was 0.068.

For F95G, the “area with substrate ENLYCQS” value was 0.0671, the “area with substrate ENLYEQS” value was 0.0619 and the “area with substrate ENLYGQS” value was 0.0442. For the same variant, the “area with substrate ENLYHQS” value was 0.0577, the “area with substrate ENLYIQS” value was 0.0684 and the “area with substrate ENLYMQS” value was 0.0582. The “area with substrate ENLYNQS” value was 0.058, the “area with substrate ENLYPQS” value was 0.0482 and the “area with substrate ENLYRQS” value was 0.0321. The “area with substrate ENLYVQS” value was 0.0722.

In the case of T114V, the “area with substrate ENLYDQS” value is reported as 0.0595, the “area with substrate ENLYEQS” value is reported as 0.056 and the “area with substrate ENLYGQS” value is reported as 0.0791. The “area with substrate ENLYHQS” value was 0.0583, the “area with substrate ENLYLQS” value was 0.0762 and the “area with substrate ENLYNQS” value was 0.0922. The “area with substrate ENLYPQS” value was 0.0787, the “area with substrate ENLYQQS” value was 0.0621 and the “area with substrate ENLYRQS” value was 0.0733. For the same variant, the “area with substrate ENLYSQS” value was 0.0712, the “area with substrate ENLYVQS” value was 0.109 and the “area with substrate ENLYWQS” value was 0.0816.

With F133Q the “area with substrate ENLYCQS” value was 0.0915, the “area with substrate ENLYEQS” value was 0.0737 and the “area with substrate ENLYGQS” value was 0.0719. The “area with substrate ENLYHQS” value was 0.0618, the “area with substrate ENLYIQS” value was 0.193 and the “area with substrate ENLYKQS” value was 0.0592. The “area with substrate ENLYMQS” value was 0.0555, the “area with substrate ENLYNQS” value was 0.0607 and the “area with substrate ENLYQQS” value was 0.0669. The “area with substrate ENLYSQS” value was 0.0892 and the “area with substrate ENLYYQS” value was 0.0774.

With R81E the “area with substrate ENLYDQS” value was 0.067, the “area with substrate ENLYEQS” value was 0.0574 and the “area with substrate ENLYHQS” value was 0.0625. For the same variant, the “area with substrate ENLYKQS” value was 0.0724, the “area with substrate ENLYNQS” value was 0.0622 and the “area with substrate ENLYPQS” value was 0.0648. For the same variant, the “area with substrate ENLYQQS” value was 0.0682, the “area with substrate ENLYSQS” value was 0.0542 and the “area with substrate ENLYVQS” value was 0.0601. For the same variant, the “area with substrate ENLYWQS” value was 0.0705 and the “area with substrate ENLYYQS” value was 0.055.

With F117K the “area with substrate ENLYDQS” value was 0.0611, the “area with substrate ENLYEQS” value was 0.0759 and the “area with substrate ENLYGQS” value was 0.0577. The “area with substrate ENLYHQS” value was 0.019, the “area with substrate ENLYMQS” value was 0.0455 and the “area with substrate ENLYNQS” value was 0.066. For the same variant, the “area with substrate ENLYPQS” value was 0.0707, the “area with substrate ENLYQQS” value was 0.063 and the “area with substrate ENLYRQS” value was 0.0521. The “area with substrate ENLYSQS” value was 0.069, the “area with substrate ENLYVQS” value was 0.114 and the “area with substrate ENLYYQS” value was 0.0645.

With F117G the “area with substrate ENLYDQS” value was 0.0665, the “area with substrate ENLYHQS” value was 0.0954 and the “area with substrate ENLYIQS” value was 0.109. The “area with substrate ENLYKQS” value was 0.0623, the “area with substrate ENLYLQS” value was 0.0936 and the “area with substrate ENLYMQS” value was 0.0551. For the same variant, the “area with substrate ENLYNQS” value was 0.0633, the “area with substrate ENLYPQS” value was 0.0825 and the “area with substrate ENLYQQS” value was 0.0668. The “area with substrate ENLYTQS” value was 0.0712, the “area with substrate ENLYVQS” value was 0.109 and the “area with substrate ENLYWQS” value was 0.0667. For the same variant, the “area with substrate ENLYYQS” value was 0.076.

In the case of A196M, the “area with substrate ENLYDQS” value is reported as 0.0739, the “area with substrate ENLYEQS” value is reported as 0.0718 and the “area with substrate ENLYGQS” value is reported as 0.0739. For the same variant, the “area with substrate ENLYHQS” value was 0.0757, the “area with substrate ENLYIQS” value was 0.126 and the “area with substrate ENLYKQS” value was 0.124. For the same variant, the “area with substrate ENLYLQS” value was 0.0922, the “area with substrate ENLYMQS” value was 0.103 and the “area with substrate ENLYNQS” value was 0.0777. The “area with substrate ENLYQQS” value was 0.0536, the “area with substrate ENLYRQS” value was 0.0574 and the “area with substrate ENLYSQS” value was 0.08. For the same variant, the “area with substrate ENLYTQS” value was 0.0792, the “area with substrate ENLYVQS” value was 0.12 and the “area with substrate ENLYWQS” value was 0.0724.

For G28E, the “area with substrate ENLYCQS” value was 0.0775, the “area with substrate ENLYDQS” value was 0.0616 and the “area with substrate ENLYEQS” value was 0.0685. For the same variant, the “area with substrate ENLYGQS” value was 0.0584, the “area with substrate ENLYHQS” value was 0.0598 and the “area with substrate ENLYKQS” value was 0.0543. The “area with substrate ENLYMQS” value was 0.0854, the “area with substrate ENLYNQS” value was 0.0604 and the “area with substrate ENLYPQS” value was 0.0712. The “area with substrate ENLYRQS” value was 0.0726, the “area with substrate ENLYSQS” value was 0.0713 and the “area with substrate ENLYTQS” value was 0.0846. The “area with substrate ENLYVQS” value was 0.104, the “area with substrate ENLYWQS” value was 0.0707 and the “area with substrate ENLYYQS” value was 0.0683.

For V126R, the “area with substrate ENLYCQS” value was 0.117, the “area with substrate ENLYDQS” value was 0.0627 and the “area with substrate ENLYEQS” value was 0.0645. For the same variant, the “area with substrate ENLYGQS” value was 0.0553, the “area with substrate ENLYHQS” value was 0.0774 and the “area with substrate ENLYIQS” value was 0.132. For the same variant, the “area with substrate ENLYMQS” value was 0.103, the “area with substrate ENLYNQS” value was 0.0668 and the “area with substrate ENLYPQS” value was 0.0892. The “area with substrate ENLYQQS” value was 0.0687, the “area with substrate ENLYSQS” value was 0.0769 and the “area with substrate ENLYTQS” value was 0.0811. The “area with substrate ENLYVQS” value was 0.126, the “area with substrate ENLYWQS” value was 0.0823 and the “area with substrate ENLYYQS” value was 0.0806.

For K98E, the “area with substrate ENLYDQS” value was 0.0577, the “area with substrate ENLYGQS” value was 0.0609 and the “area with substrate ENLYKQS” value was 0.0618. For the same variant, the “area with substrate ENLYQQS” value was 0.0359, the “area with substrate ENLYRQS” value was 0.0411 and the “area with substrate ENLYWQS” value was 0.129. For the same variant, the “area with substrate ENLYYQS” value was 0.0616.

In the case of V67M, the “area with substrate ENLYDQS” value is reported as 0.0559, the “area with substrate ENLYEQS” value is reported as 0.0817 and the “area with substrate ENLYGQS” value is reported as 0.0401. The “area with substrate ENLYHQS” value was 0.0702, the “area with substrate ENLYIQS” value was 0.0943 and the “area with substrate ENLYKQS” value was 0.0645. For the same variant, the “area with substrate ENLYLQS” value was 0.0811, the “area with substrate ENLYMQS” value was 0.0717 and the “area with substrate ENLYNQS” value was 0.0446. For the same variant, the “area with substrate ENLYPQS” value was 0.0762, the “area with substrate ENLYQQS” value was 0.0552 and the “area with substrate ENLYSQS” value was 0.0649. For the same variant, the “area with substrate ENLYVQS” value was 0.111.

In the case of Q194P, the “area with substrate ENLYDQS” value is reported as 0.0568, the “area with substrate ENLYEQS” value is reported as 0.0685 and the “area with substrate ENLYIQS” value is reported as 0.106. For the same variant, the “area with substrate ENLYKQS” value was 0.0419, the “area with substrate ENLYMQS” value was 0.0966 and the “area with substrate ENLYRQS” value was 0.0653. The “area with substrate ENLYSQS” value was 0.0621 and the “area with substrate ENLYTQS” value was 0.0997.

For G202M, the “area with substrate ENLYDQS” value was 0.0495, the “area with substrate ENLYEQS” value was 0.0535 and the “area with substrate ENLYGQS” value was 0.067. For the same variant, the “area with substrate ENLYHQS” value was 0.054, the “area with substrate ENLYKQS” value was 0.0629 and the “area with substrate ENLYMQS” value was 0.0548. For the same variant, the “area with substrate ENLYNQS” value was 0.0529, the “area with substrate ENLYPQS” value was 0.0696 and the “area with substrate ENLYQQS” value was 0.0547. For the same variant, the “area with substrate ENLYRQS” value was 0.0585, the “area with substrate ENLYSQS” value was 0.0437 and the “area with substrate ENLYVQS” value was 0.0924. For the same variant, the “area with substrate ENLYWQS” value was 0.0679 and the “area with substrate ENLYYQS” value was 0.0588.
